Test results published in the supplement of paper PMC12217912.
This is one part of the list. Sequences were assembled here from the parent chain. Values near 0.05 are background.

B1: TEV protease; numbered along this chain (parent)
chain: MGESLFKGPRDYNPISSSICHLTNESDGHTTSLYGIGFGPFIITNKHLFRRNNGTLVVQSLHGVFKVKDTTTLQQHLVDGRDMIIIRMPKDFPPFPQKLKFREPQREERICLVTTNFQTKSMSSMVSDTSCTFPSGDGIFWKHWIQTKDGQCGSPLVSTRDGFIVGIHSASNFTNTNNYFTSVPKNFMELLTNQEAQQWVSGWRLNADSVLWGGHKVFMVKPEEPFQPVKEATQL

Variants of: B1
Assay: raw area under fraction-flipped curve 0-4 h after induction (AUC4h, not background-subtracted), DNA-recorder readout of cleavage of the substrate (dimensionless); higher = more cleavage of the substrate by the protease variant
Conditions: temperature: 34 °C; time window: 0-4 h after rhamnose induction
Description: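 In vivo DNA recorder in E. coli TOP10(DE3) ΔrhaA at 34 °C. Each TEVp single-site mutant (parent TEVp 0) is paired with a single-site variant of the 7-mer TEVs (canonical ENLYFQ|S). The substrate sits between flexible linkers in a Bxb1-sfGFP-TEVs-SsrA fusion, so cleavage stabilises Bxb1 and speeds flipping of a recombination array, read by NGS. The value is the raw area under the fraction-flipped curve over 0-4 h after rhamnose induction (AUC4h), with ≥20 reads per time point. It is not background-subtracted; inactive controls average about 0.047.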
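Note: Bxb1 expression induced with 0.2% (w/v) L-rhamnose at OD600 near 0.5, cultures sampled hourly, flipped fraction per protease–substrate barcode pair counted by paired-end Illumina sequencing.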

Variant	area with substrate ENLYFQA	area with substrate ENLYFQC	area with substrate ENLYFQD	area with substrate ENLYFQG	area with substrate ENLYFQI	area with substrate ENLYFQK	area with substrate ENLYFQL	area with substrate ENLYFQM	area with substrate ENLYFQN	area with substrate ENLYFQP	area with substrate ENLYFQR	area with substrate ENLYFQS	area with substrate ENLYFQT	area with substrate ENLYFQV	area with substrate ENLYFQW	area with substrate ENLYFQY	area with substrate ENLYFQF	area with substrate ENLYFQH	area with substrate ENLYFQE	area with substrate ENLYFQQ
MGESLFKGPRDYNPIGSSICHLTNESDGHTTSLYGIGFGPFIITNKHLFRRNNGTLVVQSLHGVFKVKDTTTLQQHLVDGRDMIIIRMPKDFPPFPQKLKFREPQREERICLVTTNFQTKSMSSMVSDTSCTFPSGDGIFWKHWIQTKDGQCGSPLVSTRDGFIVGIHSASNFTNTNNYFTSVPKNFMELLTNQEAQQWVSGWRLNADSVLWGGHKVFMVKPEEPFQPVKEATQL [S16G]	0.1	0.139	0.0666	0.112	0.0519	0.0507	0.0731	0.109	0.0544	0.0325	0.0681	0.109	0.0633	0.0694	0.0607	0.0695				
MGESLFKGPRDYNPICSSICHLTNESDGHTTSLYGIGFGPFIITNKHLFRRNNGTLVVQSLHGVFKVKDTTTLQQHLVDGRDMIIIRMPKDFPPFPQKLKFREPQREERICLVTTNFQTKSMSSMVSDTSCTFPSGDGIFWKHWIQTKDGQCGSPLVSTRDGFIVGIHSASNFTNTNNYFTSVPKNFMELLTNQEAQQWVSGWRLNADSVLWGGHKVFMVKPEEPFQPVKEATQL [S16C]	0.114	0.12	0.0661		0.0535	0.0689	0.0729	0.0973	0.0801	0.0755	0.0542	0.101	0.0735	0.065	0.0639		0.0664	0.0716		
MGESLFKGPRDYTPISSSICHLTNESDGHTTSLYGIGFGPFIITNKHLFRRNNGTLVVQSLHGVFKVKDTTTLQQHLVDGRDMIIIRMPKDFPPFPQKLKFREPQREERICLVTTNFQTKSMSSMVSDTSCTFPSGDGIFWKHWIQTKDGQCGSPLVSTRDGFIVGIHSASNFTNTNNYFTSVPKNFMELLTNQEAQQWVSGWRLNADSVLWGGHKVFMVKPEEPFQPVKEATQL [N13T]	0.129	0.131		0.0951	0.0628			0.119			0.0345	0.102	0.0548	0.0685	0.0634	0.069		0.0912	0.0921	
MGESLFKGPRDYVPISSSICHLTNESDGHTTSLYGIGFGPFIITNKHLFRRNNGTLVVQSLHGVFKVKDTTTLQQHLVDGRDMIIIRMPKDFPPFPQKLKFREPQREERICLVTTNFQTKSMSSMVSDTSCTFPSGDGIFWKHWIQTKDGQCGSPLVSTRDGFIVGIHSASNFTNTNNYFTSVPKNFMELLTNQEAQQWVSGWRLNADSVLWGGHKVFMVKPEEPFQPVKEATQL [N13V]	0.119	0.119			0.0623	0.0621	0.0622	0.0425		0.0613	0.0744	0.0957	0.0551	0.0526	0.0475				0.0686	0.0641
MGESLFKGPRDYWPISSSICHLTNESDGHTTSLYGIGFGPFIITNKHLFRRNNGTLVVQSLHGVFKVKDTTTLQQHLVDGRDMIIIRMPKDFPPFPQKLKFREPQREERICLVTTNFQTKSMSSMVSDTSCTFPSGDGIFWKHWIQTKDGQCGSPLVSTRDGFIVGIHSASNFTNTNNYFTSVPKNFMELLTNQEAQQWVSGWRLNADSVLWGGHKVFMVKPEEPFQPVKEATQL [N13W]	0.108	0.103	0.0732	0.0726	0.0632	0.0665	0.0688	0.0814	0.0667	0.0545	0.0648	0.09	0.0508	0.0659	0.064			0.0782	0.0513	0.0625
MGESLFKGPRDYSPISSSICHLTNESDGHTTSLYGIGFGPFIITNKHLFRRNNGTLVVQSLHGVFKVKDTTTLQQHLVDGRDMIIIRMPKDFPPFPQKLKFREPQREERICLVTTNFQTKSMSSMVSDTSCTFPSGDGIFWKHWIQTKDGQCGSPLVSTRDGFIVGIHSASNFTNTNNYFTSVPKNFMELLTNQEAQQWVSGWRLNADSVLWGGHKVFMVKPEEPFQPVKEATQL [N13S]	0.088	0.101	0.0684	0.153	0.0639	0.0592	0.064	0.072	0.0615	0.0653	0.0525	0.0982	0.0708	0.0515	0.0741	0.0693	0.0926	0.0738		0.0662
MGEDLFKGPRDYNPISSSICHLTNESDGHTTSLYGIGFGPFIITNKHLFRRNNGTLVVQSLHGVFKVKDTTTLQQHLVDGRDMIIIRMPKDFPPFPQKLKFREPQREERICLVTTNFQTKSMSSMVSDTSCTFPSGDGIFWKHWIQTKDGQCGSPLVSTRDGFIVGIHSASNFTNTNNYFTSVPKNFMELLTNQEAQQWVSGWRLNADSVLWGGHKVFMVKPEEPFQPVKEATQL [S4D]	0.101	0.143		0.0983	0.0612	0.056	0.0629		0.0602		0.0526	0.113	0.0645					0.0924		0.103
MGESEFKGPRDYNPISSSICHLTNESDGHTTSLYGIGFGPFIITNKHLFRRNNGTLVVQSLHGVFKVKDTTTLQQHLVDGRDMIIIRMPKDFPPFPQKLKFREPQREERICLVTTNFQTKSMSSMVSDTSCTFPSGDGIFWKHWIQTKDGQCGSPLVSTRDGFIVGIHSASNFTNTNNYFTSVPKNFMELLTNQEAQQWVSGWRLNADSVLWGGHKVFMVKPEEPFQPVKEATQL [L5E]	0.0958	0.129			0.0592	0.062	0.0507		0.0852		0.0613	0.112	0.0596	0.113	0.0627	0.0992	0.0646	0.069		
MGESLFKGPRDYNIISSSICHLTNESDGHTTSLYGIGFGPFIITNKHLFRRNNGTLVVQSLHGVFKVKDTTTLQQHLVDGRDMIIIRMPKDFPPFPQKLKFREPQREERICLVTTNFQTKSMSSMVSDTSCTFPSGDGIFWKHWIQTKDGQCGSPLVSTRDGFIVGIHSASNFTNTNNYFTSVPKNFMELLTNQEAQQWVSGWRLNADSVLWGGHKVFMVKPEEPFQPVKEATQL [P14I]	0.0809	0.0968	0.0732	0.0677	0.0637	0.051	0.0607	0.101	0.076	0.046	0.0518	0.0885	0.0707	0.0561	0.0646	0.0925	0.0694	0.0458		
